Measurements reported in the BET-seq Pho4 binding data (Le et al. 2018).
Some of the results follow. These are noisy estimates, calculated here from bound and input reads.

Molecular target: T1, Pho4 (S. cerevisiae) (UniProt P07270)
T1 sequence: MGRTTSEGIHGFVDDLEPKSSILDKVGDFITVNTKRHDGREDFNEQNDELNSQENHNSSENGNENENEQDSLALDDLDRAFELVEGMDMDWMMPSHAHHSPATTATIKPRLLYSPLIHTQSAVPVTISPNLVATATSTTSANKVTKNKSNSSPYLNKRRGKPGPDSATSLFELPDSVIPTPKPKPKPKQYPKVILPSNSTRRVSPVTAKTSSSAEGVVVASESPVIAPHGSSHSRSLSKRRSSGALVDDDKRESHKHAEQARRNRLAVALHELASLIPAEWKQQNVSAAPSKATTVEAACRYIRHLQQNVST
Test: relative binding free energy (BET-seq); higher = weaker binding
Conditions: reference: library average

| Sequence | relative binding free energy |
| --- | --- |
| TGACGCACGTGGTGCG | -0.25 kcal/mol |
| TGATACACGTGTCGTG | 0.04 kcal/mol |
| TCGGTCACGTGGTTTT | 0.15 kcal/mol |
| TTCTACACGTGAAGGT | 0.3 kcal/mol |
| ATGGGCACGTGGCGGA | -0.19 kcal/mol |
| AACTTCACGTGGGGAT | 0.22 kcal/mol |
| CTAGGCACGTGTTGGG | -0.07 kcal/mol |
| GGGGTCACGTGTGATC | 0.16 kcal/mol |
| CGGGGCACGTGGGGCC | -0.38 kcal/mol |
| TGATGCACGTGTTTGC | 0.02 kcal/mol |
| GAGATCACGTGTAGGA | 0.17 kcal/mol |
| AGTTACACGTGGCAGT | 0.11 kcal/mol |
| TAATTCACGTGTAGAG | 0.11 kcal/mol |
| TGGATCACGTGCGGTC | 0.28 kcal/mol |
| TGAATCACGTGAGATA | 0.58 kcal/mol |
| TTAGACACGTGGGGTT | -0.15 kcal/mol |
| CGGGACACGTGGGTAA | -0.08 kcal/mol |
| TATTTCACGTGGATGG | 0.26 kcal/mol |
| TTTTACACGTGCTATT | 0.06 kcal/mol |
| TACGTCACGTGGGAGG | -0.04 kcal/mol |
| GCGTGCACGTGAATGG | 0.17 kcal/mol |
| TCTGGCACGTGATGAT | -0.12 kcal/mol |
| TTCGTCACGTGGGGGT | 0.04 kcal/mol |

| Sequence | relative binding free energy |
| --- | --- |
| GAATGCACGTGATTTT | 0.2 kcal/mol |
| TTTCGCACGTGGGTAG | -0.23 kcal/mol |
| AAATTCACGTGAAGGA | 0.42 kcal/mol |
| TTATGCACGTGATGCG | 0.03 kcal/mol |
| GTGTCCACGTGCGAGG | 0.08 kcal/mol |
| AGCGTCACGTGGGGCC | 0.06 kcal/mol |
| ATTTGCACGTGTTATC | 0.13 kcal/mol |
| TTTCTCACGTGTTTCG | 0.12 kcal/mol |
| TTGGGCACGTGGATTG | 0.05 kcal/mol |
| CAGGTCACGTGGGAGC | 0.08 kcal/mol |
| ATGGGCACGTGGCAGA | -0.26 kcal/mol |
| TTTTACACGTGTTGAC | 0.06 kcal/mol |
| TAGAACACGTGTGAGG | 0.1 kcal/mol |
| AATTGCACGTGTGCAT | -0.04 kcal/mol |
| GAAGGCACGTGGAATT | 0.18 kcal/mol |
| GGGACCACGTGAGGTG | 0.23 kcal/mol |
| ATGGACACGTGGAGAA | 0.08 kcal/mol |
| TTGAGCACGTGATGTT | 0.01 kcal/mol |
| TTTATCACGTGTTGGC | 0.13 kcal/mol |
| TATTACACGTGATGTG | 0.1 kcal/mol |
| ATGGACACGTGTTGAG | -0.04 kcal/mol |
| GTAAGCACGTGTGTTT | 0.06 kcal/mol |
| TGGGGCACGTGGCTTT | -0.15 kcal/mol |

| Sequence | relative binding free energy |
| --- | --- |
| CTAATCACGTGTATGT | 0.1 kcal/mol |
| AAGTTCACGTGGGCGC | 0.28 kcal/mol |
| TTTTGCACGTGTTCGC | -0.02 kcal/mol |
| TGTTCCACGTGGAGGA | -0.01 kcal/mol |
| ATTTGCACGTGGTCGG | -0.01 kcal/mol |
| TAGATCACGTGAGTTT | 0.23 kcal/mol |
| GTCTGCACGTGGTGCT | 0.02 kcal/mol |
| GACAACACGTGGGGTG | -0.06 kcal/mol |
| TATTTCACGTGTCTAG | 0.16 kcal/mol |
| ATTATCACGTGGGTAA | 0 kcal/mol |
| TTTTGCACGTGGGCAA | -0.23 kcal/mol |
| CGTGTCACGTGGAGTT | 0.15 kcal/mol |
| TTGAACACGTGGGTTT | -0.1 kcal/mol |
| GTATCCACGTGGTTAG | 0.13 kcal/mol |
| CGTGTCACGTGTACGG | -0.05 kcal/mol |
| TGGATCACGTGTTGCG | 0.22 kcal/mol |
| TTTTTCACGTGAGTGA | 0.43 kcal/mol |
| ACTTGCACGTGTGAGG | 0.03 kcal/mol |
| CGGCTCACGTGGCGTG | 0.11 kcal/mol |
| AAGGACACGTGGGTCT | -0.19 kcal/mol |
| GGGGCCACGTGGAGTA | -0.05 kcal/mol |
| TTAATCACGTGGTAAT | 0.12 kcal/mol |
| ATTAACACGTGGTAGG | -0.04 kcal/mol |

| Sequence | relative binding free energy |
| --- | --- |
| TAGGTCACGTGGATGG | 0.13 kcal/mol |
| GGTCTCACGTGAGGCG | 0.21 kcal/mol |
| CAAGGCACGTGTTAGT | -0.16 kcal/mol |
| GTAATCACGTGTTTGC | 0.18 kcal/mol |
| TGGTTCACGTGAGAGA | 0.31 kcal/mol |
| GCTAGCACGTGGGATG | -0.14 kcal/mol |
| CGTTGCACGTGTTGCA | -0.03 kcal/mol |
| GGTAGCACGTGGTTTA | -0.12 kcal/mol |
| GGTTGCACGTGGACGT | 0.02 kcal/mol |
| GTGTTCACGTGATGTG | 0.4 kcal/mol |
| GGGGGCACGTGGATAA | -0.13 kcal/mol |
| CAGTGCACGTGATTAG | 0.15 kcal/mol |
| TGAATCACGTGTTGGA | 0.06 kcal/mol |
| AAACTCACGTGTGGTT | 0.29 kcal/mol |
| AGTGTCACGTGTTGAG | 0.15 kcal/mol |
| TGTGACACGTGCTGGT | -0.04 kcal/mol |
| GGTGTCACGTGGCACG | -0.03 kcal/mol |
| TAACTCACGTGGATGG | 0.25 kcal/mol |
| AGAATCACGTGTTGTG | 0.12 kcal/mol |
| GACTGCACGTGTGTTT | 0.1 kcal/mol |
| TTAATCACGTGTTGCG | 0.12 kcal/mol |
| TGTTACACGTGGCTTA | -0.1 kcal/mol |
| AGGCTCACGTGATGAT | 0.38 kcal/mol |

| Sequence | relative binding free energy |
| --- | --- |
| TGTATCACGTGAGTGG | 0.31 kcal/mol |
| TCATGCACGTGGTGGA | 0.04 kcal/mol |
| CGGGACACGTGGGCAG | -0.1 kcal/mol |
| GTTTACACGTGATTAG | 0.26 kcal/mol |
| CTGTACACGTGCTGGA | 0.16 kcal/mol |
| TGGTCCACGTGTGGTA | 0.09 kcal/mol |
| TGTCGCACGTGCGATT | 0.08 kcal/mol |
| TATCTCACGTGGGTAA | 0.14 kcal/mol |
| GTCGACACGTGAGTGG | 0.4 kcal/mol |
| GGATGCACGTGGGCGC | -0.12 kcal/mol |
| TTGGTCACGTGCACGT | -0.05 kcal/mol |
| ATCTTCACGTGACGGT | 0.31 kcal/mol |
| GTAAGCACGTGGATTG | 0.11 kcal/mol |
| CTGAGCACGTGCGTGT | -0.1 kcal/mol |
| TAAATCACGTGTAGAG | 0.21 kcal/mol |
| TGTCACACGTGGGTGA | -0.15 kcal/mol |
| TAAAACACGTGATTGT | 0.14 kcal/mol |
| TTTGACACGTGCGCGT | -0.19 kcal/mol |
| GCTGGCACGTGGCGGG | -0.09 kcal/mol |
| GTGTTCACGTGATATG | 0.31 kcal/mol |
| CGGGGCACGTGATGGG | 0 kcal/mol |
| GTGCACACGTGATAGG | 0.23 kcal/mol |
| ACGGACACGTGTGTGT | -0.01 kcal/mol |
